# Biological target: HCV NS3/NS4A protease (strain 1a) (Hepatitis C virus genotype 1a, UniProt P27958)
# Experiment: biochemical
# Conditions: Table 5; HCV NS3/NS4A protease, spectrophotometric assay, 30° C., pH 6.5; read-out: Ki* Range
row,SMILES,Ki [nM]
1,CC(C)(C)OC(=O)N[C@H](C(=O)N1C[C@H]2[C@@H]([C@H]1C(=O)NC(CC1CC1)C(=O)C(N)=O)C2(C)C)C1CCCCC1 (some centres unmarked),1 to 100
2,CC(C)(C)OC(=O)N[C@H](C(=O)N1C[C@H]2[C@@H]([C@H]1C(=O)NC(CC1CC1)C(=O)C(N)=O)C2(C)C)C1CCC(F)(F)CC1 (some centres unmarked),1 to 100
3,CCCC(NC(=O)[C@@H]1[C@@H]2[C@H](CN1C(=O)C(NC(=O)OC(C)(C)C)C1CCC(F)(F)CC1)C2(C)C)C(=O)C(N)=O (some centres unmarked),101 to 1000
4,CCCCC(NC(=O)C1C2CCC(C2)N1C(=O)[C@H](NC(=O)OC(C)(C)C)C1CCCCC1)C(=O)C(N)=O (some centres unmarked),> 1000
5,CCCC(NC(=O)[C@@H]1C2C(CN1C(=O)[C@@H](NC(=O)OC(C)(C)C)C1Cc3ccccc3C1)C2(C)C)C(=O)C(N)=O (some centres unmarked),1 to 100
6,CC(C)(C)OC(=O)N[C@H](C(=O)N1C[C@@H]2[C@H]([C@H]1C(=O)NC(CC1CCCCC1)C(=O)C(N)=O)C2(C)C)C1CCCCC1 (some centres unmarked),> 1000
7,NC(=O)C(=O)C(CC1CCC1)NC(=O)[C@@H]1[C@@H]2[C@H](CN1C(=O)[C@@H](NC(=O)NC1CCCCC1)C1CCCCC1)C2(Cl)Cl (some centres unmarked),1 to 100
8,CC1(C)[C@H]2[C@@H](C(=O)NC(CC3CCC3)C(=O)C(N)=O)N(C(=O)[C@@H](NC(=O)OC3CCCCC3)C3CCCCC3)C[C@H]21 (some centres unmarked),1 to 100
9,CC(C)[C@@H](C)OC(=O)N[C@H](C(=O)N1C[C@@H]2[C@H]([C@H]1C(=O)NC(CC1CCC1)C(=O)C(N)=O)C2(C)C)C1CCCCC1 (some centres unmarked),1 to 100
10,CC1(C)[C@H]2[C@@H](C(=O)NC(CC3CCC3)C(=O)C(N)=O)N(C(=O)[C@@H](NC(=O)OC34CC5CC(CC(C5)C3)C4)C3CCCCC3)C[C@H]21 (some centres unmarked),1 to 100
11,CCCC(NC(=O)[C@@H]1CC(NS(=O)(=O)c2ccc(OC)cc2)CN1C(=O)[C@@H](NC(=O)OC(C)(C)C)C1CCCCC1)C(=O)C(N)=O (some centres unmarked),> 1000
12,CC(C)(C)OC(=O)N[C@H](C(=O)N1C[C@@H]2[C@H]([C@H]1C(=O)NC(CC1CCC1)C(=O)C(N)=O)C2(Cl)Cl)C1CCCCC1 (some centres unmarked),1 to 100
13,NC(=O)C(=O)C(CC1CC1)NC(=O)[C@@H]1[C@@H]2[C@H](CN1C(=O)[C@@H](NC(=O)NC1CCCCC1)C1CCCCC1)C2(Cl)Cl (some centres unmarked),1 to 100
14,CC(C)(C)NC(=O)N[C@H](C(=O)N1C[C@@H]2[C@H]([C@H]1C(=O)NC(CC1CC1)C(=O)C(N)=O)C2(Cl)Cl)C1CCCCC1 (some centres unmarked),1 to 100
15,CC(C)(C)NC(=O)N[C@H](C(=O)N1C[C@@H]2[C@H]([C@H]1C(=O)NC(CC1CCC1)C(=O)C(N)=O)C2(Cl)Cl)C1CCCCC1 (some centres unmarked),1 to 100
16,CC(NC(=O)N[C@H](C(=O)N1C[C@@H]2[C@H]([C@H]1C(=O)NC(CC1CCC1)C(=O)C(N)=O)C2(Cl)Cl)C1CCCCC1)C(C)(C)C (some centres unmarked),1 to 100
17,CCOC1(OC(=O)N[C@H](C(=O)N2C[C@H]3[C@@H]([C@H]2C(=O)NC(CC2CC2)C(=O)C(N)=O)C3(C)C)C(C)(C)C)CC1 (some centres unmarked),101 to 1000
18,CCOC1(OC(=O)N[C@H](C(=O)N2C[C@H]3[C@@H]([C@H]2C(=O)NC(CC2CC2)C(=O)C(N)=O)C3(C)C)C2CCCCC2)CC1 (some centres unmarked),1 to 100
19,CC1(OC(=O)N[C@H](C(=O)N2C[C@H]3[C@@H]([C@H]2C(=O)NC(CC2CC2)C(=O)C(N)=O)C3(C)C)C2CCCCC2)CC1 (some centres unmarked),1 to 100
20,NC(=O)C(=O)C(CC1CC1)NC(=O)[C@@H]1[C@H]2[C@@H](CN1C(=O)[C@@H](NC(=O)NC13CC4CC(CC(C4)C1)C3)C1CCCCC1)C2(Cl)Cl (some centres unmarked),1 to 100
21,CC(C)NC(=O)N[C@H](C(=O)N1C[C@@H]2[C@H]([C@H]1C(=O)N[C@@H](CC1CCC1)C(=O)C(N)=O)C2(C)C)C(C)(C)C,1 to 100

row,SMILES,Ki [nM]
1,CC(C)(C)NC(=O)NC(C(=O)N1C[C@@H]2[C@H](C1C(=O)NC(CC1CCC1)C(=O)C(N)=O)C2(C)C)C(C)(C)C (some centres unmarked),1 to 100
2,CC1(C)C2CN(C(=O)[C@@H](NC(=O)NC3CCCCC3)C(C)(C)C)[C@H](C(=O)NC(CC3CCC3)C(=O)C(N)=O)C21 (some centres unmarked),1 to 100
3,CC(C)(C)CC(C)(C)NC(=O)N[C@H](C(=O)N1CC2C([C@H]1C(=O)NC(CC1CCC1)C(=O)C(N)=O)C2(C)C)C1CCCCC1 (some centres unmarked),1 to 100
4,CCCC(NC(=O)[C@@H]1[C@@H]2[C@H](CN1C(=O)[C@@H](NC(=O)OC(C)(C)C(F)(F)F)C(C)(C)C)C2(C)C)C(=O)C(N)=O (some centres unmarked),101 to 1000
5,CC1(C)[C@@H]2[C@@H](C(=O)NC(CC3CC3)C(=O)C(N)=O)N(C(=O)[C@@H](NC(=O)OC(C)(C)C(F)(F)F)C3CCCCC3)C[C@@H]21 (some centres unmarked),1 to 100
6,CC(C)(C)[C@H](NC(=O)OC(C)(C)C(F)(F)F)C(=O)N1C[C@H]2[C@@H]([C@H]1C(=O)NC(CC1CC1)C(=O)C(N)=O)C2(C)C (some centres unmarked),1 to 100
7,CC1(C)[C@H]2[C@@H](C(=O)NC(CC3CC3)C(=O)C(N)=O)N(C(=O)[C@@H](NC(=O)OC3CC3)C3CCCCC3)C[C@H]21 (some centres unmarked),101 to 1000
8,CC(C)(C)[C@H](NC(=O)OC1CC1)C(=O)N1C[C@H]2[C@@H]([C@H]1C(=O)NC(CC1CC1)C(=O)C(N)=O)C2(C)C (some centres unmarked),101 to 1000
9,CC(C)COC(=O)N[C@H](C(=O)N1C[C@H]2[C@@H]([C@H]1C(=O)NC(CC1CC1)C(=O)C(N)=O)C2(C)C)C1CCCCC1 (some centres unmarked),101 to 1000
10,CC(C)COC(=O)N[C@H](C(=O)N1C[C@H]2[C@@H]([C@H]1C(=O)NC(CC1CC1)C(=O)C(N)=O)C2(C)C)C(C)(C)C (some centres unmarked),1 to 100
11,CC(C)(C)[C@H](NC(=O)NC12CC3CC(CC(C3)C1)C2)C(=O)N1C[C@@H]2[C@H]([C@H]1C(=O)NC(CC1CCC1)C(=O)C(N)=O)C2(C)C (some centres unmarked),1 to 100
12,CC(C)C(C)NC(=O)N[C@H](C(=O)N1C[C@@H]2[C@H]([C@H]1C(=O)NC(CC1CCC1)C(=O)C(N)=O)C2(C)C)C(C)(C)C (some centres unmarked),1 to 100
13,CCCC(NC(=O)[C@@H]1[C@H]2[C@@H](CN1C(=O)C(NC(=O)NC(C)(C)C)C1CCCCC1)C2(Cl)Cl)C(=O)C(N)=O (some centres unmarked),1 to 100
14,NC(=O)C(=O)C(CC1CC1)NC(=O)[C@@H]1[C@H]2[C@@H](CN1C(=O)[C@@H](NC(=O)NC1CCCCC1)C1Cc3ccccc3C1)C2(Cl)Cl (some centres unmarked),1 to 100
15,COCC(NC(=O)[C@@H]1[C@@H]2[C@H](CN1C(=O)[C@@H](NC(=O)OC(C)(C)C)C(C)(C)C)C2(C)C)C(=O)C(N)=O (some centres unmarked),> 1000
16,CC(C)(C)NC(=O)N[C@H](C(=O)N1C[C@H]2[C@@H]([C@H]1C(=O)NC(CC1CC1)C(=O)C(N)=O)C2(Cl)Cl)C1Cc2ccccc2C1 (some centres unmarked),1 to 100
17,CC(C)N(C(=O)N[C@H](C(=O)N1C[C@@H]2[C@H]([C@H]1C(=O)NC(CC1CCC1)C(=O)C(N)=O)C2(C)C)C1CCCCC1)C(C)C (some centres unmarked),101 to 1000
18,CN(C)C(=O)N[C@H](C(=O)N1C[C@@H]2[C@H]([C@H]1C(=O)NC(CC1CCC1)C(=O)C(N)=O)C2(C)C)C1CCCCC1 (some centres unmarked),101 to 1000
19,CN(C(=O)N[C@H](C(=O)N1C[C@@H]2[C@H]([C@H]1C(=O)NC(CC1CCC1)C(=O)C(N)=O)C2(C)C)C1CCCCC1)c1ccccc1 (some centres unmarked),> 1000
20,CC1(C)[C@H]2[C@@H](C(=O)NC(CC3CCC3)C(=O)C(N)=O)N(C(=O)[C@@H](NC(=O)N3CCCC3)C3CCCCC3)C[C@H]21 (some centres unmarked),101 to 1000
21,CC(C)(C)OC(=O)NC(C(=O)N1C[C@@H]2[C@H]([C@H]1C(=O)NC(CC1CCC1)C(=O)C(N)=O)C2(Cl)Cl)C(C)(C)C (some centres unmarked),1 to 100

row,SMILES,Ki [nM]
1,CC(C)(C)NC(=O)NC(C(=O)N1C[C@@H]2[C@H]([C@H]1C(=O)NC(CC1CCC1)C(=O)C(N)=O)C2(Cl)Cl)C(C)(C)C (some centres unmarked),1 to 100
2,CC(C)(C)C(NC(=O)NC1CCCCC1)C(=O)N1C[C@@H]2[C@H]([C@H]1C(=O)NC(CC1CCC1)C(=O)C(N)=O)C2(Cl)Cl (some centres unmarked),1 to 100
3,C[C@H]1CCC[C@@H]1OC(=O)N[C@H](C(=O)N1C[C@H]2[C@@H]([C@H]1C(=O)NC(CC1CC1)C(=O)C(N)=O)C2(C)C)C(C)(C)C (some centres unmarked),1 to 100
4,C[C@H]1CCC[C@@H]1OC(=O)N[C@H](C(=O)N1C[C@H]2[C@@H]([C@H]1C(=O)NC(CC1CC1)C(=O)C(N)=O)C2(C)C)C1CCCCC1 (some centres unmarked),1 to 100
5,CC(C)(C)OC(=O)N[C@H](C(=O)N1C[C@H]2[C@@H]([C@H]1C(=O)NC(CCC(F)F)C(=O)C(N)=O)C2(C)C)C1CCCCC1 (some centres unmarked),> 1000
6,CCCC(NC(=O)[C@@H]1[C@@H]2[C@H](CN1C(=O)[C@@H](NC(=O)OC(C)(C)C)C(C)(C)C)C2(Cl)Cl)C(=O)C(N)=O (some centres unmarked),1 to 100
7,CC(C)(C)OC(=O)N[C@H](C(=O)N1C[C@H]2[C@@H]([C@H]1C(=O)NC(CC(F)(F)F)C(=O)C(N)=O)C2(C)C)C(C)(C)C (some centres unmarked),101 to 1000
8,CC(C)(C)OC(=O)N[C@H](C(=O)N1C[C@@H]2[C@H]([C@H]1C(=O)NC(CC1CC1)C(=O)C(N)=O)C2(Cl)Cl)C(C)(C)C (some centres unmarked),1 to 100
9,CC(C)(C)NC(=O)N[C@H](C(=O)N1C[C@@H]2[C@H]([C@H]1C(=O)NC(CC1CC1)C(=O)C(N)=O)C2(Cl)Cl)C(C)(C)C (some centres unmarked),1 to 100
10,CN(C(=O)N[C@H](C(=O)N1C[C@H]2[C@@H]([C@H]1C(=O)NC(CC1CC1)C(=O)C(N)=O)C2(C)C)C(C)(C)C)C1CCCCC1 (some centres unmarked),101 to 1000
11,CC(C)(O)COC(=O)N[C@H](C(=O)N1C[C@H]2[C@@H]([C@H]1C(=O)NC(CC1CC1)C(=O)C(N)=O)C2(C)C)C(C)(C)C (some centres unmarked),101 to 1000
12,CC(C)(CO[Si](C)(C)C(C)(C)C)OC(=O)N[C@H](C(=O)N1C[C@H]2[C@@H]([C@H]1C(=O)NC(CC1CC1)C(=O)C(N)=O)C2(C)C)C1CCCCC1 (some centres unmarked),> 1000
13,CC(C)(CO[Si](C)(C)C(C)(C)C)OC(=O)N[C@H](C(=O)N1C[C@H]2[C@@H]([C@H]1C(=O)NC(CC1CC1)C(=O)C(N)=O)C2(C)C)C(C)(C)C (some centres unmarked),> 1000
14,CCCC(NC(=O)[C@@H]1[C@@H]2[C@H](CN1C(=O)[C@@H](NC(=O)OC1CCC(C)C1)C(C)(C)C)C2(C)C)C(=O)C(N)=O (some centres unmarked),101 to 1000
15,CC1CCC(OC(=O)N[C@H](C(=O)N2C[C@H]3[C@@H]([C@H]2C(=O)NC(CC2CC2)C(=O)C(N)=O)C3(C)C)C2CCCCC2)CC1 (some centres unmarked),101 to 1000
16,CC1CCC(OC(=O)N[C@H](C(=O)N2C[C@H]3[C@@H]([C@H]2C(=O)NC(CC2CC2)C(=O)C(N)=O)C3(C)C)C2CCCCC2)C1 (some centres unmarked),1 to 100
17,CC1CCC(OC(=O)N[C@H](C(=O)N2C[C@H]3[C@@H]([C@H]2C(=O)NC(CC2CC2)C(=O)C(N)=O)C3(C)C)C(C)(C)C)C1 (some centres unmarked),1 to 100
18,CC1CCCC(OC(=O)N[C@H](C(=O)N2C[C@H]3[C@@H]([C@H]2C(=O)NC(CC2CC2)C(=O)C(N)=O)C3(C)C)C2CCCCC2)C1 (some centres unmarked),101 to 1000
19,CC(C)(C)OC(=O)N[C@H](C(=O)N1C[C@H]2[C@@H]([C@H]1C(=O)NC(CC(F)(F)F)C(=O)C(N)=O)C2(C)C)C1Cc2ccccc2C1 (some centres unmarked),101 to 1000
20,CC(C)(C)OC(=O)N[C@H](C(=O)N1C[C@H]2[C@@H]([C@H]1C(=O)NC(CCC(F)(F)F)C(=O)C(N)=O)C2(C)C)C1CCCCC1 (some centres unmarked),1 to 100

# Source: US7592316B2, “Peptides as NS3-serine protease inhibitors of hepatitis C virus” (Schering Corporation, priority 2000, dated 2009)
